Results on 24 compounds are retold here after ChEMBL document CHEMBL4888484, “Replenishing the malaria drug discovery pipeline: Screening and hit evaluation of the MMV Hit Generation Library 1 (HGL1) against asexual blood stage Plasmodium falciparum ,using a nano luciferase reporter read-out” (2022).

Out of some 150,000 compounds screened, about 540 (0.36%) showed an effect of 50% or more. This is one part of the list.

The assay concerns Plasmodium falciparum. Description: Primary screen in NF54 nanoGlo assay, in single point, at 2uM, 72h; a lower Z score goes with more inhibition. The following applies: timepoint 72 hour. Type of assay: functional, Erythrocyte.
As to `CC1CC2(CCC2)CN1C(=O)C1CCN(C)C(=O)C1` (stereo not drawn), the % Inhibition (usually the change of the read-out against control, counted positive when it falls) is -15% and the Z score is reported as 1.95.
In the case of `CCCCn1nc(C)nc1-c1cc(C)nc2onc(C)c12`, the “% Inhibition” value was found to be 0% and the Z score is on record as -0.02.
Regarding `O=C(NC1CC1)c1ccc(N2CC[C@H](NCc3ccc(F)cc3)C2)nc1`, the “% Inhibition” value is -21% and the Z score stood at 2.13.
For `Cc1ccc(-c2ncn(C3CCCCC3)c2-c2ccc(C(=O)NCc3ccccc3)o2)cc1` the same measures were -8% and 1.2.
For `CC1CN(Cc2cnn(C3(C)CCS(=O)(=O)C3)c2)C(C)(C)CO1` (stereo not drawn), in that order: -1% and 0.11.
Consider `CO[C@@H]1CCC[C@@H]2CN(C(=O)c3cccc4[nH]ccc34)C[C@@H]21`, for which the “% Inhibition” value was 2% and the Z score is -0.18.
For `COCC(=O)N1CC[C@H]2CC(=O)Nc3cc(-c4ccccc4)ccc3OCC[C@H]2C1` the same measures were 27% and -3.01.
For `CN(Cc1ccc(Br)o1)c1ncccc1S(N)(=O)=O`, in that order: -12% and 1.41.
`CN(C)c1ccc(NC(=O)C2(N(Cc3ccccc3)C(=O)Cn3nnc4ccccc43)CCCC2)cc1`: the “% Inhibition” value was determined as 5% and the Z score is listed as -0.62.
As for `O=C(NCc1ccccc1F)C1Cc2cc(C(F)(F)F)ccc2N2CCN(c3ccc(F)cc3)CC12` (stereo not drawn), the “% Inhibition” value is on record as -4% and the Z score stood at 0.74.
As for `Cc1ccc2nc(-c3cnoc3C)cn2c1`, the “% Inhibition” value is 0% and the Z score came out at 0.04.
For `CCc1cccc(CN2C(=O)[C@@H]3CN(C(N)=O)CCN3C2=O)c1`, in that order: -18% and 2.15.
For `COCCn1c(C(=O)Nc2nc([C@@H]3CCCO3)n[nH]2)cc2cc(Cl)ccc21`, in that order: -5% and 0.49.
`O=C(NCCc1ccsc1)[C@@H]1CCCO1`: the “% Inhibition” value is given as -9% and the Z score is recorded as 0.99.
For `CC1CCN2C(=O)N(c3cccc(N4CCNC4=O)c3)C(=O)C2C1` (stereo not drawn), in that order: -7% and 1.26.
For `O=C(O)[C@H]1CN(c2ncccn2)CC12CCCCC2` the same measures were -17% and 2.12.
For `Cc1ccc(C)c(C(=O)N2CCC[C@H]2c2ccncc2)c1` the same measures were 0% and 0.01.
For the compound `CO[C@H]1COC[C@H]1NC(=O)NCC1=CCCCC1`, the “% Inhibition” value is recorded as -2% and the Z score was found to be 0.21.
For `C[C@H](NC(=O)C1CN(S(C)(=O)=O)C1)c1ccccc1` the same measures were -13% and 2.08.
`C[C@@H]1OCCO[C@@H]1C(=O)Nc1cnnn1-c1ccccc1`: the “% Inhibition” value is -4% and the Z score turned out to be 0.75.
For `c1cc(N2CCCCC2)ncc1CNC(C1CCC1)C1CCC1` the same measures were 2% and -0.25.
For `O=C(c1cnc2ccccc2n1)N1CCCCCC1` the same measures were 0% and 0.03.
Consider `CCN1CCN(CC(=O)N2C[C@H]3CC=CC[C@H]3C2)CC1`, for which the “% Inhibition” value is -2% and the Z score is listed as 0.15.
For `CC(C)c1nc(CO[C@H]2CCCc3c[nH]nc32)cs1`, in that order: -14% and 1.43.
